In all, about 310,000 compounds went through this assay and about 2,200 (0.71%) showed an effect of 50% or more. The effect is printed as a negative number. The list shows a part of the results.
These molecules were tested against human ether-à-go-go-related gene (hERG) potassium channel (human, UniProt Q12809) (assay: primary screen, population patch clamp on CHO cells stably expressing hERG).
Chain of human ether-à-go-go-related gene (hERG) potassium channel (Q12809 whole entry, looked up): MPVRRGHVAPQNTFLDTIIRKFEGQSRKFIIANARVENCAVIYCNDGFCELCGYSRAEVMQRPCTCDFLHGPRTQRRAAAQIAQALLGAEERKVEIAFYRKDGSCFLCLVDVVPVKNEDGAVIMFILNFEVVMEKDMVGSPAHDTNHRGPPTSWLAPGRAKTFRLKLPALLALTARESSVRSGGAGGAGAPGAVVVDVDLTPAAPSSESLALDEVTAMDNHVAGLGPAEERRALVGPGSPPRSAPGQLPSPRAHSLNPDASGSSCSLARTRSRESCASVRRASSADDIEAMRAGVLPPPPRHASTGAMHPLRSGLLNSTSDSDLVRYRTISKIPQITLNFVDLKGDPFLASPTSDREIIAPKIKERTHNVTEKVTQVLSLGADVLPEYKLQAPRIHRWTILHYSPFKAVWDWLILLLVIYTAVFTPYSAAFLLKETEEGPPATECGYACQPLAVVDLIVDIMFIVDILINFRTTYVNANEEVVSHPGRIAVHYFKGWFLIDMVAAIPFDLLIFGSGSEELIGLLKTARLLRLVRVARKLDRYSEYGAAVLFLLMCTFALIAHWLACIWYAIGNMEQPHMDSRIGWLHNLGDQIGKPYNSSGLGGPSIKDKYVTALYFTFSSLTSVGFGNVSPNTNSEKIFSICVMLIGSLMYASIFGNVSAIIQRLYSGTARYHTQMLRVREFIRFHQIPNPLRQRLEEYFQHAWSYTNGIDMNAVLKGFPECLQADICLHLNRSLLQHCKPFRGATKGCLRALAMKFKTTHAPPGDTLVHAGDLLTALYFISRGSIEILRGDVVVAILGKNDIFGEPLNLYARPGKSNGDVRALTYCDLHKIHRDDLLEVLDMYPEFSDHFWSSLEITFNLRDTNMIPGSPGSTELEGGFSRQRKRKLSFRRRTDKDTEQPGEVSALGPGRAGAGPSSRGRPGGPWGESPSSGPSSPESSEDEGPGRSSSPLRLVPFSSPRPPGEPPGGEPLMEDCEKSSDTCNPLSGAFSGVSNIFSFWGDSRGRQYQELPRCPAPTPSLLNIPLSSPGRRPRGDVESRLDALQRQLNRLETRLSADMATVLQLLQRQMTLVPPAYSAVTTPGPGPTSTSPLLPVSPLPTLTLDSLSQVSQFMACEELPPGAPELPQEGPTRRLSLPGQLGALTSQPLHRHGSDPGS

Row | SMILES | hERG current change (%, negative = inhibition) at 1uM [%]
1 | Cc1c(C(=O)NCc2ccccc2)c(-c2ccccc2)nn1-c1ccccc1 | 0.782
2 | CC(OC(=O)C1CSC2(C)CCC(=O)N12)C(=O)Nc1cccc(C#N)c1 (stereo not shown) | 18.8
3 | CCN1CCN(C(c2ccccc2)c2nnnn2CCc2ccc(OC)c(OC)c2)CC1.Cl (stereo not shown) | 12.9
4 | CCOC(=O)C1(Cc2cccc(Cl)c2)CCCN(C(=O)CCOC)C1 (stereo not shown) | 7.79
5 | Clc1ccccc1N1CCN(Cc2ccco2)CC1 | 13.6
6 | CC(=NCc1ccco1)c1c(O)n(-c2ccc(Cl)cc2)c(=O)[nH]c1=O | 13.1
7 | O=C(COc1ncnc2scc(-c3ccccc3)c12)NC1CCCc2ccccc21 (stereo not shown) | -12
8 | COc1ccc(CNC(=O)C(=O)NCC2CCCO2)cc1 (stereo not shown) | 6.7
9 | CC[n+]1ccc(C[n+]2ccccc2)c2ccccc21.[I-] | 20.1
10 | O=C(CSc1ccc(-c2ccccc2)nn1)NC1CCCCC1 | 12.9
11 | Cc1cc(=O)n(C)c(=O)n1CCCCCCOc1cccc([N+](=O)[O-])c1 | -22.7
12 | COc1ccc(CCNC(=O)c2cnc3scc(C)n3c2=O)cc1OC | -7.04
13 | O=C(O)c1cnc(-c2ccccc2)nc1-c1ccccc1 | -1.68
14 | Cc1cccc(NC(=S)NN2CCOCC2)c1C | 14
15 | Oc1ccc2ccccc2c1/C=N/n1cnnc1 | 4.62
16 | COCCCNC(=O)/C=C/c1ccc(OCc2c(F)cccc2Cl)cc1 | 10.3
17 | Cc1ccc(S(=O)(=O)N/N=C\C=C\c2ccccc2)cc1 | 7.93
18 | CCNc1nc(NCC)n2c(SCC(=O)Nc3ccccc3[N+](=O)[O-])nnc2n1 | -2.5
19 | CCC(CC)NC(=O)C1CC(=O)N(CCc2ccc(F)cc2)C1 (stereo not shown) | 14
20 | C#CCOCCOCCOCCNc1nc(N2CCN(C(=O)C([C@@H](C)CC)n3cc(C(N)Cc4ccc(O)cc4)nn3)CC2)nc(N2CCN(C(=O)[C@H](CCC(=O)O)n3cc(C(N)[C@H](C)CC)nn3)CC2)n1.Cl (stereo partly shown) | 0.185
21 | NC(=O)c1nsnc1-c1ccccc1O | 14.1
22 | Cc1nn(-c2ccccc2)c(Cl)c1/C=N/NC(=O)c1ccnn1C | 3.69

Row | SMILES | hERG current change (%, negative = inhibition) at 1uM [%]
23 | CCOc1ccccc1NC(=O)CCc1c(C)nn(-c2ccc(N3CCCCC3)nn2)c1C | 20.6
24 | O=C(CNC(=O)c1ccc(F)cc1)N/N=C/c1cc(Br)ccc1OCc1ccccc1 | 17
25 | Cn1cccc1C(=O)OCc1cc(Cl)cc2c1OCOC2 | 9.56
26 | CCNC(=S)N1CCCC(c2nc3ccc(C)cc3[nH]2)C1 (stereo not shown) | 7.78
27 | COC(=O)[C@@]12CCCCN1[C@H](c1ccc(-c3ccc(OC)cc3)c(OC)c1)[C@@H]1C(=O)N(C)C(=O)[C@@H]12.O=C(O)C(F)(F)F | 7.88
28 | COc1ccc(NC(C)C(=O)N/N=C/c2ccc([N+](=O)[O-])s2)cc1 (stereo not shown) | 7.84
29 | CCCOc1ccc(C(=O)NNC(=O)CCNC(=O)c2ccco2)cc1OC | 10.6
30 | CCOc1ccc(-c2nnc(SCC(=O)Nc3cc(C)on3)o2)cc1 | 14.9
31 | CCc1ccc(N2CC(C)Cn3c2nc2c3c(=O)[nH]c(=O)n2C)cc1 (stereo not shown) | 12.4
32 | [O-][n+]1onc2c1C(N1CCOCC1)CCC2N1CCOCC1 (stereo not shown) | 4.24
33 | COc1ccc(C(c2nnnn2C2CCCCC2)N2CCN(c3ccc(OC)cc3)CC2)cc1 (stereo not shown) | -6.19
34 | Cc1ccc(-c2ccc(/C=N/NC(=O)Cc3nnc(N)s3)o2)cc1Cl | 3.31
35 | CCCCC(CC)COC1(c2ccccc2)OC(=O)c2ccccc21 (stereo not shown) | 1.85
36 | COc1ccc(-c2[nH]ncc2-c2cnn(-c3ccccc3)c2)c(O)c1 | -2.51
37 | Cc1nc(-c2ccncc2)sc1C(=O)Nc1ccc(Br)cc1 | 12.6
38 | CCc1nnc(NC(=O)C2CC(=O)N(CCc3ccc(F)cc3)C2)s1 (stereo not shown) | 11.1
39 | COc1cc(OC)cc(C(=O)Nc2ccc(N3CCN(C(=O)c4cccs4)CC3)cc2)c1 | 0.936
40 | CC(C)(C)c1ccc(SCCc2ccncc2)cc1 | 17.4
41 | Cc1cc(C(=O)NNC2CC(=O)N(c3ccc4ccccc4c3)C2=O)c(C)o1 (stereo not shown) | 12.3
42 | O=C(NC1(C(F)(F)F)NC(=O)N(C2CCCC2)C1=O)C1CC1 (stereo not shown) | 12.6
43 | O=C(Cn1nnc(-c2ccc(Cl)cc2)n1)NC1CCS(=O)(=O)C1 (stereo not shown) | 0.0052

From article PMC4336329 (PLoS ONE, 2015)
